# Reference: PubChem BioAssay AID602332 (National Center for Advancing Translational Sciences (NCATS), 2012)
# “And” between values parts separate entries of the source, which are not always exact repeats. Equal entries are not always repeated. The whole screen tested about 420,000 compounds, of which about 75 (0.02%) were called active. The shares of active, inactive and inconclusive entries below differ from those in the screen. Calls follow the shape of the dose curve; as a rule, active = well fitted activation curve with a large enough effect; inconclusive = small, poorly fitted or top-dose-only effect; inactive = no such curve, though single readings can be large or run the other way. Where the call is inconclusive, the potency comes from a doubtful curve fit.
# Test: qHTS for Inducers of the Endoplasmic Reticulum Stress Response (ERSR) in Human Glioma: qHTS; also: nearly all actives have a fitted effect of over 35% in size; as to activation: % of control where 0% means no effect
# Conditions: U87-MG GRP78 promoter luciferase reporter, 16 h; activation: stronger effect = higher value
# Method in brief: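 Stably transfected U87-MG human glioma cells carrying a GRP78-based luminescent sensor were seeded at 1000 cells/well, pin-dosed with compounds and incubated 16 h. Luciferase reagent was then added, and end-point luminescence was read after 10 min at room temperature.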
# Potency is read from the fitted curve at half-maximal effect; tags tell the direction and shape of the fitted curve.
Structure (SMILES),Potency,activation
O=[N+]([O-])/C=C/c1cc2ccccc2[nH]1,"inconclusive: 14.1 µM [activator, single point]",–
Oc1c(CN2CCCC(C(F)(F)F)C2)cc(Cl)c2ccccc12 (stereo not given),"inconclusive: 28.2 µM [activator, single point]",–
S=C(NCCc1ccccc1)Nc1ccccn1,–,inactive: 6.3%
O=C(O)C(c1ccccc1)c1ccccc1,–,inactive: -1.92%
CCNC(=O)c1sc2cc(C)ccc2c1Cl,"inconclusive: 10 µM [activator, single point]",–
Cc1ccc(/C=N/n2c(-c3cccc(Cl)c3)n[nH]c2=S)o1,"inconclusive: 50.1 µM [activator, single point]",–
COc1cc(C2NC(=O)NC3=C2C(=O)OC3)cc(OC)c1OC (stereo not given),–,inactive: -3.64%
CCCCc1nc(SCC(=O)Nc2nnc(CCCC)s2)n[nH]1,"inconclusive: 50.1 µM [activator, single point]",–
Cc1ccc2ccc(C(Nc3cccc(C(F)(F)F)c3)c3cccnc3)c(O)c2n1 (stereo not given),–,inactive: -7.81%
NC(=O)c1sc(-c2ccsc2)cc1NS(=O)(=O)c1ccc(C(F)(F)F)cc1,"inconclusive: 50.1 µM [activator, single point]",–
COc1ccc(CN2CCc3c(c(=O)n4ncc(C(=O)N5CCN(c6ccccc6F)CC5)c4n3C)C2)cc1,–,inactive: 0.205%
CC(C)(C)C(=O)OCc1nc(-c2ccc(O)c(O)c2)cs1,"inconclusive: 44.7 µM [activator, partial curve, poor fit]",–
Cc1ccc(N/C(C(Cl)=C(Cl)Cl)=C(/Cl)[N+](=O)[O-])c(C)c1,"inconclusive: 39.8 µM [activator, partial curve]",–
Cc1cc(C(=O)c2ccc(Cl)cc2)c(NC(=O)CCl)s1,"inconclusive: 28.2 µM [activator, single point]",–
Oc1[nH]c2c(Cl)cc(Cl)cc2c1N=NC(=S)NCC1CCCO1 (stereo not given),"inconclusive: 50.1 µM [activator, single point]",–
COc1ccc(-n2nc(C(=O)NCC(=O)NCC3COc4ccccc4O3)c3ccccc3c2=O)cc1OC (stereo not given),–,inactive: -0.783%
CCC1CC=CC2C1C(=O)N(Cc1ccccc1)C2c1cccc([N+](=O)[O-])c1 (stereo not given),"inconclusive: 25.1 µM [activator, single point]",–
O=C(Cc1ccccc1)NC1CCN(C(=O)c2ccc([N+](=O)[O-])cc2)CC1,"inconclusive: 50.1 µM [activator, single point]",–
Cc1ccc(CN2CCN(C3CCCC3)C(CCO)C2)s1 (stereo not given),–,inactive: -0.613%
CN(C)S(=O)(=O)c1ccc(C(=O)OCC(=O)Nc2cccnc2Cl)cc1,–,inactive: -2.74%
Cn1c(=O)c2cc(NC(=S)NCc3ccccc3F)ccc2n1C,"inconclusive: 11.2 µM [activator, single point]",–
c1ccc(N(c2ccccc2)c2nc(-n3ccnc3)nc(-n3ccnc3)n2)cc1,"inconclusive: 50.1 µM [activator, single point]",–
Cc1ccc(N2C(=O)c3cccc4c([N+](=O)[O-])ccc(c34)C2=O)c2cccnc12,–,inactive: -5.86%
CO/S(=N\S(=O)(=O)c1ccc(Cl)cc1)c1ccc([N+](=O)[O-])cc1 (stereo not given),"inconclusive: 18.5 µM [activator, single point]",–

Structure (SMILES),Potency,activation
O=C1/C(=C/c2ccccc2)CCc2ccc(Cl)nc21,"inconclusive: 44.7 µM [activator, partial curve, poor fit]",–
Cc1cc(NCCCN(C)C)n2c(nc3ccccc32)c1C#N,"inconclusive: 50.1 µM [activator, single point]",–
O=C(Nc1cc(-c2ccccc2)cs1)c1ccco1,"inconclusive: 10 µM [activator, partial curve, poor fit]",–
CN1CCN(C2=C(Cl)C(=O)N(C3CCCCC3)C2=O)CC1,"inconclusive: 28.2 µM [activator, single point]",–
COc1ccc(-n2nnnc2SCC(=O)N2CCOCC2)cc1,–,inactive: -0.13%
CC1CCCC(NC(=O)NC(=O)COC(=O)c2ccc(O)cc2O)C1C (stereo not given),"inconclusive: 17.8 µM [activator, single point]",–
CCCCCCC1(C)NC(c2ccc3c(c2)OCO3)=CC(c2cc(Br)ccc2O)N1 (stereo not given),"inconclusive: 50.1 µM [activator, single point]",–
Cc1ccc(S(=O)(=O)NCC(=O)NCCc2c[nH]c3ccccc23)cc1C,–,inactive: -4.59%
O=c1c2c(-c3ccccc3)csc2nc2c3ccccc3c(NCCN3CCOCC3)nn12,–,inactive: -3.06%
O=C(CSc1ccc(-c2ccccn2)nn1)NCc1ccc(F)cc1,–,inactive: -0.651%
COc1ccc(CNC(=O)Cc2csc3nc(-c4ccc(F)cc4)cn23)cc1,"inconclusive: 12.6 µM [activator, full curve, poor fit]",–
CC(C)Oc1cccc(C(=O)C2CCCN(Cc3cnc(N4CCOCC4)s3)C2)c1 (stereo not given),–,inactive: -2.05%
Nc1nc(CCl)nc(Nc2ccc3ccccc3c2)n1,"inconclusive: 11.2 µM [activator, single point]",–
COc1ccc2sc3ccccc3c(=O)c2c1OC,"inconclusive: 10 µM [activator, partial curve, poor fit]",–
N/C(=N\OS(=O)(=O)c1ccc(Br)cc1)c1ccncc1,–,inactive: -5.83%
COc1ccccc1N1CCN(C(=O)C2CCN(S(=O)(=O)c3ccc4c(c3)CC(C)N4C(=O)C3CC3)CC2)CC1 (stereo not given),–,inactive: 0.98%
COc1ccc(-c2cc(=O)[nH][nH]2)cc1,"inconclusive: 44.7 µM [activator, partial curve, poor fit]",–
COc1ccc(N(C(=O)c2ccc(C)cc2)S(=O)(=O)c2cccs2)cc1,"inconclusive: 25.1 µM [activator, full curve, poor fit]",–
COc1ccc2nc(SCC(=O)Nc3ccc4sc(C)nc4c3)c(C#N)cc2c1,–,inactive: -2.89%
CN1c2ccsc2C(O)=C(C(=S)Nc2ccc(F)c(Cl)c2)S1(=O)=O,"inconclusive: 25.1 µM [activator, full curve, poor fit]",–
O=c1oc2ccc3ccccc3c2cc1-c1nnc(Nc2ccccc2)s1,–,inactive: -0.746%
COCc1cc(=O)[nH]c(Nc2nc3ccc(C)cc3o2)n1,"inconclusive: 10 µM [activator, single point]",–
COc1cccc2c1O/C(=N\O)C(C(=O)Nc1cccc(Br)c1)C2 (stereo not given),"inconclusive: 50.1 µM [activator, single point]",–
COc1ccccc1C(=O)Nc1cc(-c2cccc(Br)c2)nn1-c1ccccc1,–,inactive: 1.88%

Structure (SMILES),Potency,activation
COc1cccc(NC(=O)CN(C)C(=O)/C=C/c2cn(-c3ccccc3)nc2-c2ccc(OC)c(OC)c2)c1,–,inactive: -7.09%
COc1ccc(-n2c(/C=C/c3cccc4ccccc34)nc3ccccc3c2=O)cc1OC,"inconclusive: 25.1 µM [activator, single point]",–
C=CCNC(=O)c1cnn2c1NC(=C)C=C2C,"inconclusive: 28.2 µM [activator, single point]",–
O=C(c1ccc2ccccc2n1)N1CCN(c2ccccc2O)CC1,"inconclusive: 28.2 µM [activator, single point]",–
N/C(Cc1cccs1)=N\OC(=O)COc1ccc(Cl)cc1Cl,"inconclusive: 35.5 µM [activator, partial curve, poor fit]",–
N#Cc1ccc(S(=O)(=O)N2CCN(Cc3cccs3)CC2)cc1,–,inactive: -0.829%
O=c1c2[nH]c3ccccc3c2ncn1CCC1=CCCCC1,"inconclusive: 11.2 µM [activator, single point]",–
Cc1cc(NC(=O)OC2CCCCC2)ccc1[N+](=O)[O-],"inconclusive: 10 µM [activator, partial curve, poor fit]",–
COC(=O)c1cc(NC(=O)c2c(F)c(F)c(F)c(F)c2F)cc(C(=O)OC)c1,"inconclusive: 63.1 µM [activator, single point]",–
NC(=O)n1c(O)c(C(=O)c2cccs2)c2cc(Cl)ccc21,–,inactive: -6.15% and inactive: -9.99%
COc1ccnc(Oc2ccccc2)c1C#N,–,inactive: -0.893%
O=C(N/N=C\c1c(O)ccc2ccccc12)c1ccc(S(=O)(=O)N2CCCCC2)cc1,–,inactive: -4.28%
CC(C)c1ccc2[nH]c(O)c(N=NC(=O)c3cccc(S(=O)(=O)N4CCCCC4)c3)c2c1,–,inactive: 1.39%
CCSc1nc(N)c(C#N)c(-c2ccccc2Cl)c1C#N,–,inactive: -4.84%
O=C1OC(c2ccccc2)=NC12CC2c1ccc(Cl)cc1 (stereo not given),–,inactive: -1.25%
CCCCCN(CCCCC)C(=O)C(CCC(=O)O)NC(=O)c1ccc(Cl)c(Cl)c1 (stereo not given),"inconclusive: 52.1 µM [activator, partial curve, poor fit]",–
CSc1ccccc1C(=O)NC1CCCN(c2ccc(C(F)(F)F)cn2)C1 (stereo not given),–,inactive: 3.7%
CCOC(=O)CNC(=O)c1sc2ncnc(N3CCc4ccccc4C3)c2c1C,"inconclusive: 39.8 µM [activator, partial curve, poor fit]",–
CCCCCCC(=O)NNC(=O)c1c(O)c2ccccc2n(CC)c1=O,"inconclusive: 11.2 µM [activator, single point]",–
CC(C)C(c1nnnn1C1CCCCC1)N1CCCc2ccccc21 (stereo not given),–,inactive: -1.49%
Cc1cccc(OCCCCn2c(C3CC(=O)N(c4ccccc4Cl)C3)nc3ccccc32)c1 (stereo not given),–,inactive: -0.886%
O=S(=O)(C/C(=C/CO)S(=O)(=O)c1ccccc1)c1ccccc1,"inconclusive: 3.16 µM [activator, single point]",–
